Laboratory results reported in patent publication US12551573B2, “Compositions and methods for the targeting of PCSK9” (Scribe Therapeutics Inc., priority 2022, dated 2026).

Test system: HBEGF locus
Format: cell-based, human
Settings: high-throughput screen of dXR repression of the HBEGF gene
[1] = abundance of each domain in the library before and after diphtheria toxin selection, HEK293T cells
[2] = change in abundance of each domain in the library before and after diphtheria toxin selection

B1: DOMAIN_14041 (protein, listed as Phascolarctos cinereus)
chain: QDLVTFKDVSVDFTREEWMRLDHPQRALYRDVMLENYRNLVLVSLGHPISKPDVISRLEQGGVPWVLKKGATGRAFSDRET
- Log2 (fold change) [1]: 2.9069

B2: DOMAIN_14049 (protein, listed as Phascolarctos cinereus)
chain: PQESVTFKDVAVDFTWEEWGYLDTSQKELYWEVMLENYRNLVSLGLADSNVDMISQLESGEAQGIPVDSVLTSCWPDGDRR
- Log2 (fold change) [1]: 2.7761

B3: DOMAIN_14069 (protein, listed as Lynx canadensis)
chain: AQKSLTLEDVAVDFSREEWRLLAPAQKDLYRDVMLENYRNLVSVGHQASKPDVLAKLERGEEPWAIEEEVRSGTSPETGKV
- Log2 (fold change) [1]: 2.9182

B4: DOMAIN_14083 (protein)
chain: YKESVMFRDVAVDFSQEEWECLDPAQRDLYRDVMLENYSNLLSMGLYIPKPQVISLLEQGKEPWMVGRELTRGLCSDLESM
modifications: Phyllostomus discolor
- Log2 (fold change) [1]: 2.7465

B5: DOMAIN_21247 (protein)
chain: LVSFEDVAMDFSREEWQQLDPAQRCLYQDVMLEIYSHLLSVEGALGLKTSQQKIFEKASFHNGKESEVTRGGMWCSISEDL
modifications: Neovison vison
- Log2 (fold change) [2]: 2.741

B6: DOMAIN_14108 (protein, listed as Canis lupus)
chain: SLESDLFRDVAVVFSQEEWEQLVPTQRDLYRDVMLETYNNLVSLGLAISKPDVISFLEQGKEPWMVEKAATGGLCPVLESR
- Log2 (fold change) [1]: 3.0621

B7: DOMAIN_14129 (protein, listed as Lynx canadensis)
chain: LQGLLTFRDVAIEFSQDEWGCLNQSQRELYRDVMLETYGHLLFLGLIVSKPHLVIFLEQKRELWDVKRKKTVRTQKGENTS
- Log2 (fold change) [1]: 2.8195

B8: DOMAIN_14135 (protein, listed as Bos mutus)
chain: LQVSVSFEDVTVDFSREEWQHLDSAQRRLYQDVMLENYSHLLSLGYEVPKPEVIFKLEQGEEPWALKEKTLHHSCSDDTTL
- Log2 (fold change) [1]: 2.426

B9: DOMAIN_14147 (protein, listed as Canis lupus)
chain: RPGAVSFADVAVYFSPEEWGCLRPAQRALYRDVMRETYGHLGALGFADAKPVLIAWLERKAEVWTPEAEDPEEGARHPGSG
- Log2 (fold change) [1]: 3.3683

B10: DOMAIN_14153 (protein)
chain: LQDLVTFKDVTVEFNQEEWALLDSSQQKLYRDVMLENYGNLASLGYHVDKPSLISQLEQEDKVMTEEGGILPGTCPDLETV
modifications: Muntiacus muntjak
- Log2 (fold change) [1]: 2.883

B11: DOMAIN_14197 (protein)
chain: B6 chain with S1Q, L2A, E3G, V23A, N39S, I48V, M65T, K68G, A69V, E79K
modifications: Muntiacus muntjak
- Log2 (fold change) [1]: 2.9589

B12: DOMAIN_14219 (protein, listed as Ailuropoda melanoleuca)
chain: QGLVSFKDVAVDFTQEEWQQLDPAQRTLYRDVMLENFSHLVSIGYAVSKPDVISKLEQGEDPWIIKRDIPNWIYPDENQAD
- Log2 (fold change) [1]: 2.6653

B13: DOMAIN_14226 (protein, listed as Lynx canadensis)
chain: SQGLVSFKDVAVDFTQEEWQQLDPAQRTLYRDVMLENFSHVISLGYPVSKPDVISKLEQGEDPWIIKRDVSNWIYTDENQA
- Log2 (fold change) [1]: 3.1176

B14: DOMAIN_14228 (protein, listed as Lynx canadensis)
chain: AQGLVTFRDVAIEFSQEEWKCLEPAQRNLYRDVTLENFSNLVSLGLSISKPDLISLLEQGREPWMIANDMTGPWCPELESR
- Log2 (fold change) [1]: 3.3445

B15: DOMAIN_14256 (protein, listed as Lynx canadensis)
chain: GKPGALSFADVAVYFSSEEWGCLRPAQRALYRDVMRETYGHLGALGEARPPALISWMERKKEAWSPEAEDPEDRARHPGYG
- Log2 (fold change) [1]: 2.4946

B16: DOMAIN_21317 (protein, listed as Pteropus vampyrus)
chain: EQESVSFKDVTIDFSREEWQQLDFAQKSLYRDVMLENYFNLISVGCQVPKPEVIFNLEQVENSCMLHRKISRQSCLDGDIG
- Log2 (fold change) [2]: 4.0893

B17: DOMAIN_14295 (protein)
chain: RKRGSLTLEDVAVDFTWEEWQLLAPAQKALYRDVMLENYGNLVFVGYQASKPAALSRLERGEPWPVEDEVHSQLCPEMRKD
modifications: Muntiacus muntjak
- Log2 (fold change) [1]: 3.4018

B18: DOMAIN_14322 (protein, listed as Desmodus rotundus)
chain: SVAFRDVIVDFTQEEWQQLKPAQKDLYRDVMMENYWNLVSLDLETRPDKKESDPQEDDWEDRPSIAVVAEGPMRTGDQGCI
- Log2 (fold change) [1]: 3.3716

B19: DOMAIN_14337 (protein)
chain: QPDLVTFGDVAVDFSQEEWEWLNPAQRSLYRTVMLDNYRSLVSLGVSASKPDVISLLEQGKEPWLVKEEGPRGARPDSSPT
modifications: Muntiacus muntjak
- Log2 (fold change) [1]: 3.2753

B20: DOMAIN_14338 (protein, listed as Ailuropoda melanoleuca)
chain: QEPVTFEDVAVYFTQNQWAKLDPTQRALYREVMLENYANVASLVAFPFPKPDLVSQLERGEVPWGPDPWEAEVLRGICPGG
- Log2 (fold change) [1]: 3.1071

B21: DOMAIN_14358 (protein, listed as Lynx canadensis)
chain: GPWTLLTFRDVAIEFSQEEWGCLNHSQRELYRDVMLETYGHLLFLGLVSKPDLVILLEQKKELWGVKRKETVGCQFEGHVT
- Log2 (fold change) [1]: 2.7094

B22: DOMAIN_14365 (protein, listed as Desmodus rotundus)
chain: SVTFRDVIVDFTQEEWEQLKPVQKDLYRDVMMENYWNLVSLDLETEGDMNDPDPEKDSWEDRPSVTSSMPAPPRLEGPRGA
- Log2 (fold change) [1]: 3.0706

B23: DOMAIN_14382 (protein, listed as Phascolarctos cinereus)
chain: SQESVTFQDVAVDFTREEWKRLDSAQRDLYRDVMLENYQNLVSLGLLVFQSDVISQLENGEVPLVPGGEVPRGTRPGSVNQ
- Log2 (fold change) [1]: 4.0523

B24: DOMAIN_14444 (protein)
chain: MMGLVTFEDVAVDFTQEEWQYLNPPQRILYRGVMMETYRNLVFVAGQQATKPDLILKMEVEEPYLAEDKIPIWSCPEEACQ
modifications: Phyllostomus discolor
- Log2 (fold change) [1]: 2.4641

B25: DOMAIN_21336 (protein, listed as Equus caballus)
chain: PKVPVTFDDVAVYFSESEWGRLDKWQKELYKHVMRGNYEMLVSLDYAISKPDILTRMERGEEPCPDGPWGPEEGKEREAAR
- Log2 (fold change) [2]: 2.738

B26: DOMAIN_14487 (protein, listed as Ailuropoda melanoleuca)
chain: LQESVTFRDVAVFFSQDEWLRLDSAQRTLYREVMLENYGTLVSLGIPFSTPKVICQLQQGEDPCVVDRELPQDAWPGLKTQ
- Log2 (fold change) [1]: 2.7981

B27: DOMAIN_14526 (protein, listed as Ailuropoda melanoleuca)
chain: KQGGVTFEDVAVYFSQEEWSLLNEAQRRLYHDVMLENFALISSLGCCCRAEAVETPFEQSISVGVSQAKTPKEPRSSQKTH
- Log2 (fold change) [1]: 3.2232

B28: DOMAIN_14532 (protein, listed as Lynx canadensis)
chain: SQGSVTFRDVAIDFSQEEWEWLQPTQRDLYRHVMLENYSHLVSLGLNISKPYVVSLLEQGKEPWLEKRGVRRNLFSEPNRE
- Log2 (fold change) [1]: 3.2071

B29: DOMAIN_14534 (protein, listed as Lynx canadensis)
chain: KPGAVSFADVAVYFSPEEWGCLRPAQRALYRDVMRETYGHLGALGFRGTKPALISWVEEEADLWGPDARDPEVGECLTAAD
- Log2 (fold change) [1]: 2.8122

B30: DOMAIN_14551 (protein, listed as Ailuropoda melanoleuca)
chain: B4 chain with Y1T, K2V, E3G, R8S, A11S, A25G
- Log2 (fold change) [1]: 3.6894

B31: DOMAIN_14557 (protein, listed as Lynx canadensis)
chain: SKVPVTFGDLAIYFSQEEWEWLSPIQKDLYEDVMLENYQNLVSLGLSFRRPNVITLLEKGRAPWMVEPVRKRRGLDSRSKY
- Log2 (fold change) [1]: 2.9876

B32: DOMAIN_14574 (protein, listed as Gorilla sp.)
chain: KPGAVSFADVAVYFSREEWGCLRPAQRALYRDVMRETYGHLGALGVGGSKPALISWVEEKAELWDPAAQDPEVAKCPTEAD
- Log2 (fold change) [1]: 3.3356

B33: DOMAIN_14576 (protein, listed as Ailuropoda melanoleuca)
chain: PQKSVTFEDVAVYFTQTEWDGLSPAQRALYRDVMLENYGNVASLGFSLLKPAVISQLEGADELEGPSPLVAGTEIGPQGLW
- Log2 (fold change) [1]: 3.2158

B34: DOMAIN_14602 (protein, listed as Gorilla sp.)
chain: RQEPVTFEDVAVYFTQNEWASLDSVQRALYREVMLENYANVASLAFPFITPVLVSQLEQGELPWGLDPWEPMGREALRGIC
- Log2 (fold change) [1]: 3.2145

B35: DOMAIN_21603 (protein)
chain: SQGLVAFEDVAVYFSLEEWERLDADQRELYQEVMQENYGILVSLGYPIPKPDLIFRLEQGEEPWVPDSPRPEEGDIVTGVY
modifications: Lipotes vexillifer
- Log2 (fold change) [2]: 2.8535

B36: DOMAIN_14627 (protein, listed as Acinonyx jubatus)
chain: LQGSLSFEDVTVGFSQEEWQRLDPAQRTLYRDVMLENYSHLVAVGCCVPKPDVIFRLEQGQQPWLVEEESLDQSCPEVCRV
- Log2 (fold change) [1]: 2.9501

B37: DOMAIN_14639 (protein, listed as Macaca mulatta)
chain: KEKLVTFEDVAVYFTQAEWDGLSPAQRTLYRDVMLENYGNVASLGFPLLKPAVISQLEGGGELGGPSPLAAGTGLWGLRTG
- Log2 (fold change) [1]: 2.7046

Changes are numbered by the printed parent chain. Where two headings read alike, the source gives them in different places.
